Source: the supplement of paper PMC8291772
± gives the standard error. The list shows a part of the results.

target: terminal deoxynucleotidyl transferase (calf thymus) (UniProt P06526); assay: TdT poly-dT extension signal (Cy3 hybridisation fluorescence, uncapped minus capped) (fluorescence a.u.); higher = more efficient initiation of TdT extension; conditions: initiator chemistry: L-DNA (mirror-image), free 5'-OH (3'-tethered via HEG linker)
Experimental: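 All mono- to pentamer D-DNA or L-DNA initiators were made by forward (3'->5') photolithographic in situ synthesis on glass on a hexaethylene glycol linker, leaving a free 5'-OH. Each was made in uncapped and DMTr-dT-capped versions, about 11 replicates each. Arrays were extended with calf thymus TdT (0.2 U/uL), 100 uM dTTP and 0.25 mM CoCl2 for 120 min at 37 C, hybridised with an rA18-Cy3 probe and scanned at 532 nm. The value is the mean uncapped minus the mean capped signal. IDs read 5'->3'. L-DNA is mirror-image; D-DNA 5'-OH initiators were below LOD (no extension).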

Chain of UniProt P06526 (P06526 whole entry): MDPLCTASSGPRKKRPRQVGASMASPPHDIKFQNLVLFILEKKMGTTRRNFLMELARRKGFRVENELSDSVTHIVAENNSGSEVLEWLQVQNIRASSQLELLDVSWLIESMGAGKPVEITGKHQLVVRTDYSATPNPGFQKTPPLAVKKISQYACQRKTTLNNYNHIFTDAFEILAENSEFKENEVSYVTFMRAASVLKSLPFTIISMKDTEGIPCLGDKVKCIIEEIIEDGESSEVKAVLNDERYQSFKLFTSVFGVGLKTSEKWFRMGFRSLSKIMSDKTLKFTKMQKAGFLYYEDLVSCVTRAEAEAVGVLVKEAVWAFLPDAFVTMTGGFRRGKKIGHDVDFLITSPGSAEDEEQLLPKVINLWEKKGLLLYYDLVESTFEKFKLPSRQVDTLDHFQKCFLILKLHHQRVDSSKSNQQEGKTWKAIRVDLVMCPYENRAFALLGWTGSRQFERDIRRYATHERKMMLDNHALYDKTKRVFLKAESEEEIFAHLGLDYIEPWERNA

Sequence	TdT poly-dT extension signal
CGGCC	60.3 ± 5.3
ACACC	72.6 ± 7.5
TCTCG	153 ± 8.1
GGAGG	104 ± 13
ATGGT	120 ± 11
CAGG	55 ± 6
ATTGA	165 ± 14
GATTA	77.7 ± 7.4
CACCC	63.7 ± 8
TGGTT	105 ± 8.6
TCCTG	166 ± 16
GAAG	84.2 ± 7
CCAAC	88.3 ± 9
TCTTT	153 ± 12
TAAC	170 ± 9.3
TGGAT	115 ± 8.1
CTATA	170 ± 13
GTCAT	135 ± 9.9
CCGCT	57.4 ± 6
CCAAT	101 ± 7.5
AGTG	45.2 ± 5.9
AAGAT	64.9 ± 8.1

Sequence	TdT poly-dT extension signal
CAGAC	60 ± 6.4
TAAAG	223 ± 12
AAAGC	67 ± 7.7
GACTC	92.9 ± 11
ACGT	42.1 ± 5.4
AGACG	76.7 ± 8.6
AGCTA	43.4 ± 4.9
CCCTT	78.4 ± 6.8
TATCG	166 ± 17
GCCG	95.6 ± 5.3
CTCTG	148 ± 13
ACGAT	57.4 ± 6.8
TATCC	138 ± 13
GTGCA	84.5 ± 7.8
TCTCA	199 ± 18
TACGG	192 ± 11
CACAG	80.2 ± 6.8
AAAAC	78.1 ± 8.6
TTTT	223 ± 25
CTTTT	135 ± 12
GATTT	79.8 ± 9
CCCTG	78.1 ± 7.9

Sequence	TdT poly-dT extension signal
CATTA	78.4 ± 11
CTGTC	101 ± 8.1
GGTCT	31.1 ± 5.4
GAGC	67.3 ± 3.5
ATCT	148 ± 17
TCCT	169 ± 16
AGCCA	49.6 ± 8.4
GTACT	137 ± 10
TGATG	184 ± 9.4
CGGC	59.4 ± 8.6
GTGCG	129 ± 9.4
GAAA	96.5 ± 8.5
GTGA	101 ± 10
TCAAC	186 ± 13
ACACG	65.7 ± 8.4
GCCTA	97.9 ± 12
TGAAC	231 ± 21
GGCCA	65.2 ± 7
ATCGT	189 ± 13
AAAAA	106 ± 7.2
GAGA	78.4 ± 5.5
TGTGT	113 ± 11

Sequence	TdT poly-dT extension signal
AAGCT	40 ± 5.4
TAGA	139 ± 13
TCGAC	151 ± 11
GTCGA	176 ± 15
CACC	71.5 ± 8
GTTAT	155 ± 13
GGGT	55.9 ± 4.4
TAGC	107 ± 14
CCCGG	125 ± 7.8
ACTGC	48.4 ± 9.3
CTATG	161 ± 12
CTTTG	141 ± 13
TAAGA	161 ± 14
GGTAC	56.8 ± 7.3
CGAGT	47.4 ± 5.2
CTCGA	135 ± 12
TTTCG	286 ± 22
CCACG	100 ± 8.9
CGTC	54.8 ± 8.1
CATGG	80 ± 9.5
CCTTA	68 ± 5.6
TAAAC	191 ± 19

Sequence	TdT poly-dT extension signal
CTTAG	158 ± 16
GATAT	86.8 ± 8.1
CTGGG	141 ± 8.5
CAACT	73.7 ± 9.8
AATA	106 ± 9.7
AGATG	75.2 ± 5.8
ATTTT	136 ± 16
AGAGA	84.3 ± 4.5
ACTTA	47 ± 20
GTGTC	102 ± 8.5
AAGTG	51 ± 4.8
GCCCA	74.8 ± 7.6
GTTGA	173 ± 19
AACCC	74.5 ± 9.3
CGTGG	68 ± 6.6
TACG	149 ± 14
CGGAC	58.2 ± 6.5
ATATG	192 ± 15
TCCGT	193 ± 12
